# Source: the supplement of paper PMC8728848
# Some of the results follow.
# B1: CLECb-Precomplexed (Mus musculus), P43025 (protein)
# chain: MAKNGLVLCILVVSLLLDQTDGYPSRMKARKHSKRRVKAKDDDLKSQVEKLWREVNALKEMQALQTVCLRGTKVHKKCYLASEGLKHYHEANEDCISKGGTLVVPRNSDEINALRDYGKRSLPGVNDFWLGINDMVTEGKFLDVHGFAVSFLNWDRAQPSGGKRENCVLFSQSAQGKWSDEACRSSKRYICEFIIPTRTRPLEQKLISEEDLAANDILDYKDDDDKV
# Columns and labels:
# Assay in all cases: glycan array binding signal (z-score within array); higher = stronger binding
# Details in all cases: glycan notation: IUPAC condensed, linker removed
# [1] = molecular target: Gal(b1-3)GlcNAc(b1-2)Man(a1-3)[Gal(b1-3)GlcNAc(b1-2)Man(a1-6)]Man(b1-4)GlcNAc(b1-4)[Fuc(a1-6)]GlcNAc
# In short: (§1)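 The binding signal is a Z-score computed within each array and averaged over linkers. Arrays of the same protein sequence at different concentrations or buffers were also averaged together. Data originate from 3228 arrays in the Consortium for Functional Glycomics database, kept only where the protein sequence was available.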
# [2] = molecular target: Gal(b1-3)GlcNAc(b1-2)Man(a1-3)[GlcNAc(b1-4)][Gal(b1-3)GlcNAc(b1-2)Man(a1-6)]Man(b1-4)GlcNAc(b1-4)GlcNAc
# In short: as §1
# [3] = molecular target: Gal(b1-3)GlcNAc(b1-2)[Gal(b1-3)GlcNAc(b1-6)]Man(a1-6)[Gal(b1-3)GlcNAc(b1-2)Man(a1-3)]Man(b1-4)GlcNAc(b1-4)GlcNAc
# In short: as §1
# [4] = molecular target: Gal(b1-3)GlcNAc(b1-3)Gal(b1-3)GlcNAc
# In short: as §1
# [5] = molecular target: Gal(b1-3)GlcNAc(b1-3)Gal(b1-4)Glc
# In short: as §1
# [6] = molecular target: Gal(b1-3)GlcNAc(b1-3)Gal(b1-4)GlcNAc
# In short: as §1
# [7] = molecular target: Gal(b1-3)GlcNAc(b1-3)Gal(b1-4)GlcNAc(b1-2)Man(a1-3)[Gal(b1-3)GlcNAc(b1-3)Gal(b1-4)GlcNAc(b1-2)Man(a1-6)]Man(b1-4)GlcNAc(b1-4)GlcNAc
# In short: as §1
# [8] = molecular target: Gal(b1-3)GlcNAc(b1-3)Gal(b1-4)GlcNAc(b1-2)[Gal(b1-3)GlcNAc(b1-3)Gal(b1-4)GlcNAc(b1-6)]Man(a1-6)[Gal(b1-3)GlcNAc(b1-3)Gal(b1-4)GlcNAc(b1-2)Man(a1-3)]Man(b1-4)GlcNAc(b1-4)[Fuc(a1-6)]GlcNAc
# In short: as §1
# [9] = molecular target: Gal(b1-3)GlcNAc(b1-3)Gal(b1-4)GlcNAc(b1-3)Gal(b1-4)GlcNAc(b1-2)[Gal(b1-3)GlcNAc(b1-3)Gal(b1-4)GlcNAc(b1-3)Gal(b1-4)GlcNAc(b1-6)]Man(a1-6)[Gal(b1-3)GlcNAc(b1-3)Gal(b1-4)GlcNAc(b1-3)Gal(b1-4)GlcNAc(b1-2)Man(a1-3)]Man(b1-4)GlcNAc(b1-4)[Fuc(a1-6)]GlcNAc
# In short: as §1
# [10] = molecular target: Gal(b1-3)GlcNAc(b1-3)Gal(b1-4)GlcNAc(b1-6)[Gal(b1-3)GlcNAc(b1-3)]Gal(b1-4)Glc
# In short: as §1
# [11] = molecular target: Gal(b1-3)GlcNAc(b1-3)Gal(b1-4)[Fuc(a1-3)]GlcNAc
# In short: as §1
# [12] = molecular target: Gal(b1-3)GlcNAc(b1-3)Gal(b1-4)[Fuc(a1-3)]GlcNAc(b1-6)[Gal(b1-3)GlcNAc(b1-3)]Gal(b1-4)Glc
# In short: as §1
# [13] = molecular target: Gal(b1-3)GlcNAc(b1-3)GalNAc
# In short: as §1
# [14] = molecular target: Gal(b1-3)GlcNAc(b1-6)Gal(b1-4)GlcNAc
# In short: as §1
# [15] = molecular target: Gal(b1-3)GlcNAc(b1-6)GalNAc
# In short: as §1
# [16] = molecular target: Gal(b1-3)GlcNAc(b1-6)[Gal(b1-3)]GalNAc
# In short: as §1
# [17] = molecular target: Gal(b1-3)GlcNAc6S
# In short: as §1
# [18] = molecular target: Gal(b1-3)[Fuc(a1-4)]GlcNAc
# In short: as §1
# [19] = molecular target: Gal(b1-3)[Fuc(a1-4)]GlcNAc(b1-2)Man
# In short: as §1
# [20] = molecular target: Gal(b1-3)[Fuc(a1-4)]GlcNAc(b1-2)Man(a1-3)[Gal(b1-3)[Fuc(a1-4)]GlcNAc(b1-2)Man(a1-6)]Man(b1-4)GlcNAc(b1-4)[Fuc(a1-6)]GlcNAc
# In short: as §1
# [21] = molecular target: Gal(b1-3)[Fuc(a1-4)]GlcNAc(b1-3)Gal(b1-3)[Fuc(a1-4)]GlcNAc
# In short: as §1
# [22] = molecular target: Gal(b1-3)[Fuc(a1-4)]GlcNAc(b1-3)Gal(b1-4)[Fuc(a1-3)]GlcNAc
# In short: as §1
# [23] = molecular target: Gal(b1-3)[Fuc(a1-4)]GlcNAc(b1-6)GalNAc
# In short: as §1
# [24] = molecular target: Gal(b1-3)[GlcNAc(b1-6)]GalNAc
# In short: as §1
# [25] = molecular target: Gal(b1-3)[Neu5Ac(a2-6)]GalNAc
# In short: as §1
# [26] = molecular target: Gal(b1-3)[Neu5Ac(a2-6)]GlcNAc(b1-4)Gal(b1-4)Glc
# In short: as §1
# [27] = molecular target: Gal(b1-3)[Neu5Ac(b2-6)]GalNAc
# In short: as §1
# [28] = molecular target: Gal(b1-4)Gal
# In short: as §1
# [29] = molecular target: Gal(b1-4)GalNAc(a1-3)[Fuc(a1-2)]Gal(b1-4)GlcNAc
# In short: as §1
# [30] = molecular target: Gal(b1-4)GalNAc(b1-3)[Fuc(a1-2)]Gal(b1-4)GlcNAc
# In short: as §1
# [31] = molecular target: Gal(b1-4)Glc
# In short: as §1
# [32] = molecular target: Gal(b1-4)Glc6S
# In short: as §1
# [33] = molecular target: Gal(b1-4)GlcNAc
# In short: as §1
# [34] = molecular target: Gal(b1-4)GlcNAc(a1-6)Gal(b1-4)GlcNAc
# In short: as §1
# [35] = molecular target: Gal(b1-4)GlcNAc(b1-2)Man
# In short: as §1
# [36] = molecular target: Gal(b1-4)GlcNAc(b1-2)Man(a1-3)Man(b1-4)GlcNAc(b1-4)GlcNAc
# In short: as §1
# [37] = molecular target: Gal(b1-4)GlcNAc(b1-2)Man(a1-3)[Gal(b1-4)GlcNAc(b1-2)Man(a1-6)]Man(b1-4)GlcNAc(b1-4)GlcNAc
# In short: as §1
# [38] = molecular target: Gal(b1-4)GlcNAc(b1-2)Man(a1-3)[Gal(b1-4)GlcNAc(b1-2)Man(a1-6)]Man(b1-4)GlcNAc(b1-4)[Fuc(a1-6)]GlcNAc
# In short: as §1
# [39] = molecular target: Gal(b1-4)GlcNAc(b1-2)Man(a1-3)[Gal(b1-4)GlcNAc(b1-2)Man(a1-6)][Gal(b1-4)GlcNAc(b1-4)]Man(b1-4)GlcNAc(b1-4)[Fuc(a1-6)]GlcNAc
# In short: as §1
# [40] = molecular target: Gal(b1-4)GlcNAc(b1-2)Man(a1-3)[Gal(b1-4)GlcNAc(b1-2)Man(a1-6)][GlcNAc(b1-4)]Man(b1-4)GlcNAc(b1-4)[Fuc(a1-6)]GlcNAc
# In short: as §1
# [41] = molecular target: Gal(b1-4)GlcNAc(b1-2)Man(a1-3)[GlcNAc(b1-2)Man(a1-6)]Man(b1-4)GlcNAc(b1-4)GlcNAc
# In short: as §1
# [42] = molecular target: Gal(b1-4)GlcNAc(b1-2)Man(a1-3)[GlcNAc(b1-4)][Gal(b1-4)GlcNAc(b1-2)Man(a1-6)]Man(b1-4)GlcNAc(b1-4)GlcNAc
# In short: as §1
# [43] = molecular target: Gal(b1-4)GlcNAc(b1-2)Man(a1-3)[Man(a1-6)]Man(b1-4)GlcNAc(b1-4)GlcNAc
# In short: as §1
# [44] = molecular target: Gal(b1-4)GlcNAc(b1-2)Man(a1-6)Man(b1-4)GlcNAc(b1-4)GlcNAc
# In short: as §1
# [45] = molecular target: Gal(b1-4)GlcNAc(b1-2)Man(a1-6)[GlcNAc(b1-2)Man(a1-3)]Man(b1-4)GlcNAc(b1-4)GlcNAc
# In short: as §1
binder,measurement,setting,value
B1,glycan array binding signal (z-score),[1],-0.182
same,glycan array binding signal (z-score),[2],1.51
same,glycan array binding signal (z-score),[3],1.42
same,glycan array binding signal (z-score),[4],-0.229
same,glycan array binding signal (z-score),[5],0.974
same,glycan array binding signal (z-score),[6],1.06
same,glycan array binding signal (z-score),[7],0.774
same,glycan array binding signal (z-score),[8],0.18
same,glycan array binding signal (z-score),[9],0.916
same,glycan array binding signal (z-score),[10],-0.327
same,glycan array binding signal (z-score),[11],-0.084
same,glycan array binding signal (z-score),[12],-0.319
same,glycan array binding signal (z-score),[13],-0.415
same,glycan array binding signal (z-score),[14],-0.388
same,glycan array binding signal (z-score),[15],0.148
same,glycan array binding signal (z-score),[16],-0.462
same,glycan array binding signal (z-score),[17],-0.23
same,glycan array binding signal (z-score),[18],-0.207
same,glycan array binding signal (z-score),[19],-0.166
same,glycan array binding signal (z-score),[20],2.08
same,glycan array binding signal (z-score),[21],0.004
same,glycan array binding signal (z-score),[22],-0.217
same,glycan array binding signal (z-score),[23],0.649
same,glycan array binding signal (z-score),[24],-0.229
same,glycan array binding signal (z-score),[25],-0.475
same,glycan array binding signal (z-score),[26],-0.333
same,glycan array binding signal (z-score),[27],-0.33
same,glycan array binding signal (z-score),[28],-0.428
same,glycan array binding signal (z-score),[29],-0.078
same,glycan array binding signal (z-score),[30],-0.119
same,glycan array binding signal (z-score),[31],-0.461
same,glycan array binding signal (z-score),[32],0.251
same,glycan array binding signal (z-score),[33],-0.28
same,glycan array binding signal (z-score),[34],0.922
same,glycan array binding signal (z-score),[35],-0.291
same,glycan array binding signal (z-score),[36],0.618
same,glycan array binding signal (z-score),[37],0.926
same,glycan array binding signal (z-score),[38],0.781
same,glycan array binding signal (z-score),[39],-0.085
same,glycan array binding signal (z-score),[40],-0.189
same,glycan array binding signal (z-score),[41],-0.209
same,glycan array binding signal (z-score),[42],0.142
same,glycan array binding signal (z-score),[43],-0.374
same,glycan array binding signal (z-score),[44],0.358
same,glycan array binding signal (z-score),[45],1.65
